Reference: PubChem BioAssay AID360 (National Center for Advancing Translational Sciences (NCATS), 2006)
Among all 48,000 compounds or so, about 550 (1.1%) were called active. Inconclusive results (about 4%) are left out. No stated cut-off is given here; in the data, active means potency below about 15 µM; inconclusive means mostly about 16 µM to 33 µM; inactive means weaker than that. This is one part of the list.

Target: Lysosomal acid glucosylceramidase (Homo sapiens) (UniProt P04062)
Test: Glucocerebrosidase;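 further: the screen sought inhibitors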
Details: purified enzyme, resorufin glucoside fluorescence (screen aimed at inhibitors), 20 min
How it was run: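 Wild-type enzyme at 0.2 nM final in 50mM citric acid/KH2PO4, 10mM sodium taurocholate, 0.01% tween-20, pH 5.9, with resorufin beta-D-glucopyranoside at 30 uM final. Compounds titrated, 20 min at RT, red fluorescence read; AC50 from titration.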
Potency means the concentration at half of the fitted maximal effect.

Sequence of UniProt P04062 (P04062 whole entry, looked up): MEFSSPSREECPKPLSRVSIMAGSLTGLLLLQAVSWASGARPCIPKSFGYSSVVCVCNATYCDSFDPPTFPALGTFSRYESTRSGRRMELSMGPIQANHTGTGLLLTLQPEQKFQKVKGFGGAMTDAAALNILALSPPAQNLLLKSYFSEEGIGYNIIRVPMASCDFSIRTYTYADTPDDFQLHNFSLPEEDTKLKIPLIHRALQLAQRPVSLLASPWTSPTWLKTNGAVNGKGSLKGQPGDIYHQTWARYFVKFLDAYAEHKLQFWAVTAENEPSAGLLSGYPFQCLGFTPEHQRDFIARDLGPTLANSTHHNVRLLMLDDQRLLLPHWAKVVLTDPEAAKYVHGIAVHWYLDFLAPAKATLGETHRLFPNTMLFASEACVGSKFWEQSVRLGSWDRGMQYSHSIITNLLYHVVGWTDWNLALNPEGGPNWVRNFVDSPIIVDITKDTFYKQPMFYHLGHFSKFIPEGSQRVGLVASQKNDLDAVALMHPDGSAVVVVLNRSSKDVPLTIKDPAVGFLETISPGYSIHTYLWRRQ

Potency, inactive:
O=C1c2[nH]nc(-c3ccccc3O)c2C(c2ccc(F)cc2)N1Cc1ccco1 (centres undefined)
O=C(NCC(=O)N(c1cccnc1)C(C(=O)NC1CCCCC1)c1cccnc1)c1ccco1 (centres undefined) > 76.9 µM
CCOC(=O)c1cc2ccc(OC(=O)c3ccco3)cc2oc1=O > 76.9 µM
CCCN(CCC)S(=O)(=O)c1ccc(C(=O)Nc2nnc(-c3cccc(OC)c3)o2)cc1 > 76.9 µM
Cc1cc(C)cc(NC(=O)CCN2CC(C)OC(C)C2)c1 (centres undefined) > 76.9 µM
CCOCc1cc(C2NC(=O)NC(C)=C2C(=O)OCC)ccc1OC (centres undefined) > 76.9 µM
Cc1nn(Cc2ccccc2)c(C)c1C(=O)OCC(=O)c1cc(C)n(C2CC2)c1C
CCC(=O)N1CCc2cc(OC)c(OC)cc2C1COc1ccc(C(=O)OC)cc1 (centres undefined) > 76.9 µM
CC(=O)NC(CC(=O)NCC(c1ccco1)N(C)C)c1ccccc1 (centres undefined) > 76.9 µM
Cc1ccc(C(C)C)c(OCc2nnc(SCC(=O)Nc3ncc(C)s3)n2C)c1 > 76.9 µM
Cc1cccc(C)c1-n1nnnc1SCSc1nnnn1-c1c(C)cccc1C > 76.9 µM
Cn1c(=O)n(Cc2ccccc2F)c2ccccc21 > 76.9 µM
COc1ccc(CNC(=O)C2CCN(c3nccs3)CC2)cc1 > 76.9 µM
COc1ccc(S(=O)(=O)NC(CC(=O)NCc2ccco2)c2ccco2)cc1 (centres undefined) > 76.9 µM
COCCNC(=O)c1ccccc1NC(=O)CN(c1ccc2c(c1)OCO2)S(C)(=O)=O > 76.9 µM
Cc1c(CNC(=O)c2nn3c(c2Cl)NC(c2ccccc2)CC3C(F)(F)F)cnn1C (centres undefined) > 76.9 µM
Cc1cc(C(=O)OCC(=O)c2ccc(Br)s2)c(C)o1 > 76.9 µM
O=C(COc1ccccc1)N(Cc1cc2ccccc2[nH]c1=O)CC1CCCO1 (centres undefined) > 76.9 µM
Cc1cc(C)c2c(n1)nn1c(N3CCN(c4cccc(Cl)c4)CC3)cc(C)nc21 > 76.9 µM
O=C1c2ccccc2C(=O)N1CC(O)COCc1ccccc1 (centres undefined) > 76.9 µM
Cc1ccc2nc(NC(=O)c3cccs3)sc2c1 > 76.9 µM
O=C(NCCCN1CCOCC1)c1ccc(Br)s1 > 76.9 µM
Clc1cccc(-c2nnc(SCc3nc4ccccc4[nH]3)n2Cc2ccco2)c1 > 76.9 µM
CCOC(=O)c1c(N)sc2c1C1CCN2CC1 > 76.9 µM
COCCN1C(=O)C(=O)/C(=C(/O)c2ccc(OCC(C)C)cc2)C1c1cccnc1 (centres undefined) > 76.9 µM
COC(=O)c1cc(OC)c(OC)cc1NC(=O)c1cc(C)on1 > 76.9 µM
O=S(=O)(NC1CCCC1)c1ccc(S(=O)(=O)N2CCc3ccccc32)cc1 > 76.9 µM
O=C(NC(NC1CCS(=O)(=O)C1)C(=O)c1cccs1)c1ccccc1 (centres undefined) > 76.9 µM
COc1ccc(S(=O)(=O)N(CC(=O)N2CCN(C)CC2)c2ccccc2)cc1OC > 76.9 µM
Cc1ccc(SCc2nc(-c3ccccn3)no2)cc1 > 76.9 µM
COc1ccc(C2/C(=C(\O)c3ccc4c(c3)OCCO4)C(=O)C(=O)N2CCCN(C)C)c(OC)c1 (centres undefined) > 76.9 µM
CCCS(=O)(=O)N1CCCC(C(=O)N2CCN(C(=O)OCC)CC2)C1 (centres undefined) > 76.9 µM
CC(=O)Nc1ccc(NC(=O)Cn2c(CC(=O)N3CCCC3)nc3ccccc32)cc1 > 76.9 µM
COc1c(C)cccc1C(=O)Nc1ccc(CN2CCOCC2)cc1 > 76.9 µM
S=c1[nH]nc(Cc2c[nH]c3ccccc23)o1 > 76.9 µM
COCc1nnc(NC(=O)CCC2CCCCC2)s1 > 76.9 µM
O=C(O)CCCC(=O)Nc1nc(-c2ccc(F)cc2)cs1 > 76.9 µM
O=C1c2oc3ccc(Cl)cc3c(=O)c2C(c2cccnc2)N1Cc1ccco1 (centres undefined) > 76.9 µM
Nc1ccc(-c2ccc(N)cc2C(F)(F)F)c(C(F)(F)F)c1 > 76.9 µM
O=C(c1ccco1)N1CCN(C(=O)N2c3ccccc3Sc3ccccc32)CC1 > 76.9 µM
CC1(C)CNC(=O)c2sc(NC(=O)CN3CCOCC3)nc2C1 > 76.9 µM
CCOCCCNc1nc2c([nH]1)c(=O)n(C)c(=O)n2C > 76.9 µM
C=CCn1c(SCC(=O)Nc2ccc3c(c2)OCO3)nnc1-c1ccccc1O > 76.9 µM
COc1ccccc1N1CCN(C(=O)C2CC=CCC2C(=O)O)CC1 (centres undefined) > 76.9 µM
c1ccc2c(c1)OCC(c1nn3c(Cn4nnc5ccccc54)nnc3s1)O2 (centres undefined) > 76.9 µM
CC(C(=O)NC1CCCC1)N(Cc1ccc2c(c1)OCO2)C(=O)c1snc(C(N)=O)c1N (centres undefined) > 76.9 µM
Cn1c(CNC(=O)Nc2ccccc2)nnc1SCc1ccccc1 > 76.9 µM
c1ccc(COn2nnc3ccccc32)c(COn2nnc3ccccc32)c1 > 76.9 µM
COCCNC(=O)c1c(N)n(-c2cccc(C)c2)c2nc3ccccc3nc12 > 76.9 µM
COc1cccc(C(=O)NCC(=O)N2CCC(C)CC2)c1 > 76.9 µM
Cn1c(NC(=O)c2cccs2)c(-c2cccs2)c(=O)c2ccccc21 > 76.9 µM
CCN(CC)C(=O)CSc1nnc(-c2cnccn2)n1-c1ccc(C)cc1 > 76.9 µM
Cc1cc(C)c2c(n1)nn1c(N3CCOCC3)cc(C)nc21 > 76.9 µM
Cc1ccc(CC(=O)OCCNC(=O)c2cccnc2)cc1 > 76.9 µM
CCn1c(Cc2ccccc2)nnc1SCC(=O)Nc1nccs1 > 76.9 µM
Cc1ccc(N2CC(C(=O)NC3=NCCS3)CC2=O)cc1C (centres undefined) > 76.9 µM
CCn1c(C)c(C(C)=O)c(NCc2ccccc2)nc1=S > 76.9 µM
CC(=O)N(CN1C(=O)c2ccccc2C1=O)c1cccc(C)c1 > 76.9 µM
COc1ccc(N2C(=O)C3CCCN3C2c2ccc(C)o2)cc1Cl (centres undefined) > 76.9 µM
COc1ccc(C2C(=O)N(C3CCCCC3)CC(=O)N2Cc2ccc3c(c2)OCO3)cc1 (centres undefined) > 76.9 µM
CCOC(=O)CNC(=O)CSc1nnc(-c2ccco2)n1N > 76.9 µM
CCC(C(=O)N1CCOCC1)n1c(C(=O)OC)cc2occc21 (centres undefined)
COC(=O)CSc1nnc(CNC(=O)Cc2ccccc2)n1-c1ccccc1OC > 76.9 µM
CCCn1c(SCC(=O)c2ccc3c(c2)OCCO3)nc2c1c(=O)n(C)c(=O)n2C > 76.9 µM
CCOC(=O)c1ccc(NS(=O)(=O)c2ccc3c(c2)CCCN3C(C)=O)cc1 > 76.9 µM
Cc1ccc(S(=O)(=O)N2CCN(c3ncnc4c3cnn4-c3ccccc3)CC2)cc1 > 76.9 µM
COCCN1C(=O)c2ccccc2C(C(=O)NCC2CCCO2)C1c1c[nH]c2ccccc12 (centres undefined) > 76.9 µM
N#CC1=C(N)Oc2n[nH]c(CSc3ccccc3)c2C12C(=O)Nc1ccccc12 (centres undefined) > 76.9 µM
COc1ccc(S(=O)(=O)N2CCC(C(=O)N3CCCC3)CC2)cc1 > 76.9 µM
CN(C)CCN1C(=O)C(=O)/C(=C(/O)c2ccc(OCc3ccccc3)cc2)C1c1ccncc1 (centres undefined) > 76.9 µM
O=C(NC1CCCCC1)n1c(=O)oc2cc(S(=O)(=O)N3CCCCC3)ccc21 > 76.9 µM
CC(=O)N1CCc2cc(S(=O)(=O)NCCC(=O)NCCc3ccccc3)ccc21 > 76.9 µM
CCOC(=O)c1c(-n2cnnn2)sc(C)c1C > 76.9 µM
O=C(C1CCCN(S(=O)(=O)c2cccs2)C1)N1CCc2ccccc2C1 (centres undefined) > 76.9 µM
O=C(NCc1ccccn1)Nc1cccc(NC(=O)NCc2ccccn2)c1 > 76.9 µM
Cc1cc(NC(=O)c2cc(C)on2)no1 > 76.9 µM
Cc1cc(C(=O)NC(C)c2ccc3c(c2)OCO3)cs1 (centres undefined) > 76.9 µM
CC1CCN(c2oc(-c3cccc4ccccc34)nc2C#N)CC1 > 76.9 µM
COc1ccc(OCc2nn3c(-c4cccc(OC)c4)nnc3s2)cc1 > 76.9 µM
CCC(c1nnc(SCC(=O)N2CC3(C)CC2CC(C)(C)C3)o1)N(C)C (centres undefined) > 76.9 µM
C=C(C)Cn1c(=O)c(NC(=O)c2ccccc2)c2n(c1=S)CCC2 > 76.9 µM
O=c1c2ccccc2nc(-c2ccco2)n1CCCn1ccnc1 > 76.9 µM
N#Cc1cc(-c2ccccc2)nn1-c1ccccc1 > 76.9 µM
CCOC(=O)C1CCN(C(=O)CCCCn2c(=O)[nH]c3ccccc3c2=O)CC1 > 76.9 µM
CCC1Cc2c(nc3c4c(nc(N5CCOCC5)c(C#N)c24)NC(C)=N3)O1 (centres undefined) > 76.9 µM
COc1ccc(NC(=O)Nc2ncn(Cc3cccc(C(F)(F)F)c3)n2)cc1OC > 76.9 µM
O=C1Nc2ccccc2C1(O)Cc1ccncc1 (centres undefined) > 76.9 µM
O=C(/N=C1\NC(=O)C(F)(C(F)(F)F)S1)NC1CCCCC1 (centres undefined) > 76.9 µM
CC1(C)C(=O)C2(C(=O)NCc3ccccc3)CCC1C2 (centres undefined) > 76.9 µM
